Earlier results in publication PMC11006913.
The other results are listed elsewhere or left out.

Molecular target: PROP1 R112Q (Homo sapiens) (UniProt O75360)
Settings: PBM; conditions not shown; double strand, one strand shown; scale: upbm affinity estimate (log intensity, higher = more binding, comparable within an allelic series)

Sequence of UniProt O75360 (O75360 56-141 R112Q): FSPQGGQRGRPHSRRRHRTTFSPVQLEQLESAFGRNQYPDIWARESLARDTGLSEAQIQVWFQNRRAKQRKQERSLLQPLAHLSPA

Row | Sequence | binding signal
1 | GTCATAAC [8-mer GTCATAAC] | 11.7
2 | ACTAGTTA [8-mer ACTAGTTA] | 11.8
3 | ACCAATCA [8-mer ACCAATCA] | 12.3
4 | AATATTGG [8-mer AATATTGG] | 12
5 | ATGCAATA [8-mer ATGCAATA] | 11.8
6 | CCAATCAA [8-mer CCAATCAA] | 12.2
7 | ATTACCAG [8-mer ATTACCAG] | 12
8 | TATATTAA [8-mer TATATTAA] | 12.2
9 | CAATAGAC [8-mer CAATAGAC] | 11.8
10 | ACGATTGG [8-mer ACGATTGG] | 11.7
11 | CCAATTGA [8-mer CCAATTGA] | 12.6
12 | ACCAATTG [8-mer ACCAATTG] | 12.4
13 | AGCAATTG [8-mer AGCAATTG] | 12.1
14 | TGTGATAA [8-mer TGTGATAA] | 11.9
15 | ACCAATCG [8-mer ACCAATCG] | 11.8
16 | ATCAATCG [8-mer ATCAATCG] | 12.1
17 | CCAATCAG [8-mer CCAATCAG] | 12
18 | CAATTGTC [8-mer CAATTGTC] | 12.2
19 | AATCATCG [8-mer AATCATCG] | 11.9
20 | GACAATAA [8-mer GACAATAA] | 11.9
21 | ATTGCTAA [8-mer ATTGCTAA] | 12
22 | ACCAATAG [8-mer ACCAATAG] | 11.9
23 | AATTGGCT [8-mer AATTGGCT] | 12.6
24 | TATCAATA [8-mer TATCAATA] | 12
25 | AATTGTAA [8-mer AATTGTAA] | 12.1
26 | GATAATAC [8-mer GATAATAC] | 11.9
27 | GATGAGTA [8-mer GATGAGTA] | 11.7
28 | AATTCGTA [8-mer AATTCGTA] | 11.9
